The results in this text go back to patent US20260265409A1 (NANJING LEADS BIOLABS, published 2026).

Assay [1] concerns the target T1, human FAP protein expressed on 293T cells (293T-human FAP) (human, UniProt Q12884 1-760).
T1 sequence: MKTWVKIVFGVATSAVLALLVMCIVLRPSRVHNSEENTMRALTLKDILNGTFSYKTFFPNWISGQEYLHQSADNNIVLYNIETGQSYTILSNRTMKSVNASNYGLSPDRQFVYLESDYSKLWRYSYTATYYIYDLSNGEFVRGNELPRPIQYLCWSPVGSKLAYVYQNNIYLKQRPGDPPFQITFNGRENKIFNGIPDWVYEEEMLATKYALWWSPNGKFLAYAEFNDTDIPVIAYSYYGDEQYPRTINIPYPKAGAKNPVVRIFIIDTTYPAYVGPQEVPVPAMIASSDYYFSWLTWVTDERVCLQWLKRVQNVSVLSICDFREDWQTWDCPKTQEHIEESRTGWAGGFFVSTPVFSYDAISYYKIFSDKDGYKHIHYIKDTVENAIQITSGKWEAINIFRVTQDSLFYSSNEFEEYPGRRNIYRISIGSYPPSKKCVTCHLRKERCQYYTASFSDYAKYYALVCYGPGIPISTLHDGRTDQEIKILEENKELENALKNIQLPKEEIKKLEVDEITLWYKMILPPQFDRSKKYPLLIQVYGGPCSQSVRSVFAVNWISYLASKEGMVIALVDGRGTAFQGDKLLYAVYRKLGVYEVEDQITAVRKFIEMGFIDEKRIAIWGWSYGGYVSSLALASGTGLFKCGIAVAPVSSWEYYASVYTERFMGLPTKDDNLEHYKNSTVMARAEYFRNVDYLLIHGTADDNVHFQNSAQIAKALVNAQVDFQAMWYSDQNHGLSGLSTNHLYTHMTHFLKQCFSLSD
Briefly: flow cytometry on 293T-human FAP cells, PE goat anti-human IgG Fc secondary antibody. The method, then:
The cells were washed twice with PBS, and then fluorescent secondary antibody R-PE-conjugated AffiniPure Goat Anti-Human IgG, Fcγ Fragment Specific (Jackson Immuno Research, Cat #109-116-098) was added. The cells were incubated at 4° C. for 30 min. The cells were washed twice with PBS and then resuspended, and finally, fluorescence signals were detected using the […] (BD Bioscience) flow cytometer.
In general terms: In flow cytometry, cells or beads pass a laser one at a time.

Assay [2] has as its target T2, recombinant human FAP protein (Sino Biological, Cat #10464-H07H) (human, UniProt Q12884 26-760).
T2 construct: Bought protein
T2 sequence: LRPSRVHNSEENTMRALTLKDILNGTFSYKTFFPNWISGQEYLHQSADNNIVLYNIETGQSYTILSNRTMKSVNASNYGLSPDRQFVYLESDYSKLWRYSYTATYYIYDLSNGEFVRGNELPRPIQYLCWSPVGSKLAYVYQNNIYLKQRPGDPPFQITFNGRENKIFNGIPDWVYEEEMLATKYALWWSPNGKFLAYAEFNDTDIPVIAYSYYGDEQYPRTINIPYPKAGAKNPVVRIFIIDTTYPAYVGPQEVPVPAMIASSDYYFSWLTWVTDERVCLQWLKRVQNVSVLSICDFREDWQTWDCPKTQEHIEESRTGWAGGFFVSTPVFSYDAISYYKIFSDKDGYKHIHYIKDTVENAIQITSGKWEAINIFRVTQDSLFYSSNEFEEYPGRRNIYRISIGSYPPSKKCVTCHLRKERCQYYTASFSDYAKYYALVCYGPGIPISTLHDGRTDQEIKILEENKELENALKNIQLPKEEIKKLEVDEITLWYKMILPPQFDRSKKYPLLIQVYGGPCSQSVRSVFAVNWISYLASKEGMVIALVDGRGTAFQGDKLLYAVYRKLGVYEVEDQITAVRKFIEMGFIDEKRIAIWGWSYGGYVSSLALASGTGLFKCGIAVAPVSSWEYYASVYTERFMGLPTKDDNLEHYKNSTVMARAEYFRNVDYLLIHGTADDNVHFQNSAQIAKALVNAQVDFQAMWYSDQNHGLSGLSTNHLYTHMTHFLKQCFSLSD
Briefly: BLI (ForteBio Octet RED96), fusion protein captured on AHC sensor, FAP as analyte, 1:1 model.

In assay [3] the target is T3, human TGFβ1 protein (Sino Biological, Cat #10804-HNAC) (human, UniProt P01137 in part).
T3 construct: also called Recombinant human TGFβ1
Description: BLI (ForteBio Octet RED96), fusion protein captured on AHC sensor, TGFβ1 as analyte, 1:1 model. (In general: BLI is a label-free optical method that tracks binding on a fibre tip over time.)

Assay [4] has as its target T4, human TGFβ2 protein (Novoprotein, Cat #CJ79) (human, UniProt P61812 303-414).
T4 construct: also called Recombinant human TGFβ2
T4 sequence (looked up): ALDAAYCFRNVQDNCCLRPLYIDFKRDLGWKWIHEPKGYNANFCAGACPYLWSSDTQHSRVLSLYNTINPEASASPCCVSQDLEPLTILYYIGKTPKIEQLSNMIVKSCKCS
Briefly: BLI (ForteBio Octet RED96), fusion protein captured on AHC sensor, TGFβ2 as analyte, 1:1 model.

T3 sequence (P01137 279-390 limits assumed): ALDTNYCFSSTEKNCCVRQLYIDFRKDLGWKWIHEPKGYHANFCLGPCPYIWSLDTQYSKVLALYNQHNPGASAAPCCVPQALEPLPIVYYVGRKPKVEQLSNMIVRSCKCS

B1: antibody fusion protein LG-NGR-Trap (other)
heavy: QVQLVQSGAEVKKPGASVKVSCKASGYTFTEYTIHWVRQATGQGLEWIGGINPNNRIPNYNQKFKGRATMTVGTSISTAYMELSSLRSEDTAVYFCARRRIAYGYDEGHAMDYWGQGTLVTVSS[human IgG1 constant region not written out]IPPHVQKSVNNDMIVTDNNGAVKFPQLCKFCDVRFSTCDNQKSCMSNCSITSICEKPQEVCVAVWRKNDENITLETVCHDPKLPYHDFILEDAASPKCIMKEKKKPGETFFMCSCSSDECNDNIIFSEEYNTSNPD
light: DIQMTQSPSSLSASVGDRVTITCKSSQSLLYSRNQKNYLAWFQQKPGKAPKLLIFWASTRESGVPSRFTGSGFGTDFTLTISSLQPEDFATYYCQQYFSYPLTFGQGTKLEIKRTVAAPSVFIFPPSDEQLKSGTASVVCLLNNFYPREAKVQWKVDNALQSGNSQESVTEQDSKDSTYSLSSTLTLSKADYEKHKVYACEVTHQGLSSPVTKSFNRGEC
notes: also called huF19-LG-NGR-Trap; anti-FAP-Trap
One may read the EC50 (read off the curve) as the midpoint of the concentration-response curve. The low end stands for a more potent agent, the high end for a less potent agent. A word on the Kd: it is the constant that tells how readily two partners part at equilibrium. Take B1: the half-maximal effective concentration (EC50 (read off the curve)) in assay [1] was approximately 1000 pM. Besides, the Kd was less than 1 pM in assay [2], 252 pM in assay [3] and 804 pM in assay [4].
